About 2,200 (0.71%) of roughly 310,000 compounds showed an effect of 50% or more. Effects have a minus sign here. The list shows a part of the results. Where a SMILES comes first, the peptide text is derived from it. The star is where a group is joined. Cbz = O=C(OCc1ccccc1)*

Chain of human ether-à-go-go-related gene (hERG) potassium channel (Q12809 whole entry, looked up): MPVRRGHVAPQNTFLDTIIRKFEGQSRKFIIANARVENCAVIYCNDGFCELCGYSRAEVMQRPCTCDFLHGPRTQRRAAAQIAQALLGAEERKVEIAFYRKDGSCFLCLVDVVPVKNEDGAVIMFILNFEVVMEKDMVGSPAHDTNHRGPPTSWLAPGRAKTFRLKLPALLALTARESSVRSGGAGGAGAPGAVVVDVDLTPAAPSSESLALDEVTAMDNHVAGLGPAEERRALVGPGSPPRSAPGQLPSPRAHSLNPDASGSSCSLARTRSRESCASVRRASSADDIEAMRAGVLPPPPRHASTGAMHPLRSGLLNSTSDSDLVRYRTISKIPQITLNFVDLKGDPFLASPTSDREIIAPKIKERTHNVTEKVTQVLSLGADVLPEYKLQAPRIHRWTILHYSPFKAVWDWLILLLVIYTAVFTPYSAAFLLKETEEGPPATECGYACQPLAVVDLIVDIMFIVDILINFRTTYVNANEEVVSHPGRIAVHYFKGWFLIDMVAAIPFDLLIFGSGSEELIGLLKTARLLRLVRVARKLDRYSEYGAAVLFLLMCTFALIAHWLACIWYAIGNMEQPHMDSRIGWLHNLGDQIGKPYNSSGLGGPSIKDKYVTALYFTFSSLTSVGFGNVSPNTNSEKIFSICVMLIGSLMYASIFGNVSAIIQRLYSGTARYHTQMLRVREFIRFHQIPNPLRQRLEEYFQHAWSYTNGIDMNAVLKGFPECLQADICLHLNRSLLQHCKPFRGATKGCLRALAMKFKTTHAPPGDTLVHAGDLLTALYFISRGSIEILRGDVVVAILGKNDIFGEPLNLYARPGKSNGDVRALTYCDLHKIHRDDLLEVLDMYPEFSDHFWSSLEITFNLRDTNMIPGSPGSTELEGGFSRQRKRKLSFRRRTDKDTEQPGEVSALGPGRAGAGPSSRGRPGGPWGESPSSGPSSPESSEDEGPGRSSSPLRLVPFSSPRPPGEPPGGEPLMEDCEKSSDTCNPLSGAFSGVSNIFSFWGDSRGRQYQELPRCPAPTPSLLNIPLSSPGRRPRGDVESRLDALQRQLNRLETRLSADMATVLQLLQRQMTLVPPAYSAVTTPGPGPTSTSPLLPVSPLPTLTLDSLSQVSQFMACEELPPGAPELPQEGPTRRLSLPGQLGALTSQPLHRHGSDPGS

This assay addresses human ether-à-go-go-related gene (hERG) potassium channel (human, UniProt Q12809). Description: primary screen, population patch clamp on CHO cells stably expressing hERG.
`Cc1cc(CN2CCC(n3nccc3NC(=O)c3ccccc3C)CC2)n[nH]1`: the “hERG current change (%, negative = inhibition) at 1uM” value is given as -7.51%. The value for `CC(C)NC(=O)C(=O)NC1CCCCCC1` was -5.48%; that for `CCCCn1c(=O)c(F)cn(Cc2ccc(OC)c([N+](=O)[O-])c2)c1=O` was 1.43%. The value for `N#Cc1c(SCC(N)=O)nsc1SCc1ccccc1Cl` was 10.6%. For `Cc1cc2nn(-c3ccc(Cl)cc3)nc2cc1N` the value was 14%. For the compound `COc1ccc(NC(=O)COC(=O)COc2ccc(Br)cc2)cc1`, the “hERG current change (%, negative = inhibition) at 1uM” value is 19.3%. The value for `O=S(=O)(Cc1ccc(Cl)cc1)N1CCCCCC1` was 8.21%; that for `CC(C)Oc1ccc(C(CC(=O)O)NC(=O)Cc2ccc(Cl)cc2)cc1` (stereo not drawn) was 8.96%.

On to `CCC1CCCCN1CCCNC(=O)c1cn(CC)c2ccc(S(=O)(=O)N(C)C3CCCCC3)cc2c1=O` (stereo not drawn), for which the “hERG current change (%, negative = inhibition) at 1uM” value is -75.5%. As for `CC(=O)c1csc(-c2cccc(-c3nc4ccc(Cl)cn4c3NC3CCCCC3)c2)c1.O=C(O)C(F)(F)F`, the “hERG current change (%, negative = inhibition) at 1uM” value was determined as 21.4%.

With `c1csc(C2C3=C(Nc4ncnn42)c2ccccc2OC3)c1` (stereo not drawn), the “hERG current change (%, negative = inhibition) at 1uM” value amounted to 17.9%.

As for `Cc1cc2nc(-c3ccc(NC(=O)c4cccnc4)cc3)oc2cc1C`, the “hERG current change (%, negative = inhibition) at 1uM” value amounted to 12%. For `CC(=O)NC(C(=O)c1ccccc1)N1CCCCC1` (stereo not drawn) the value was 4.13%; for `COC(=O)c1ccc(N2CCN(C)CC2)c(NC(=O)COc2ccccc2Cl)c1`, 11.8%; for `CC1=NN(c2ccc(C(=O)OC(C)C)cc2)C(=O)/C1=C\C=C\c1ccco1`, 7.33%. As for `COCCn1cnc2c(c1=O)c1nc3ccccc3nc1n2/N=C/c1cccc(OC)c1`, the “hERG current change (%, negative = inhibition) at 1uM” value was found to be 6.83%. For `Cc1cccc(NC(=O)Nc2ccc(F)cc2)n1` the value was 11.2%; for `CCNc1nc(NC(C)C)nc(N2CC(=O)N(CC(=O)OCC)C2=N)n1`, -0.616%. The value for `CCOc1cc(/C=C(/C#N)c2nc3ccccc3[nH]2)ccc1Oc1ccc([N+](=O)[O-])cn1` was 8.93%; that for `CCc1cccc(NC(=O)CN(C)S(=O)(=O)c2cnc[nH]2)c1` was 15.9%. The value for `CCOC(=O)N1CCC(N(CCOC)C(=O)Nc2ccc(Cl)c(Cl)c2)CC1` was -4.37%. For the compound `CCCCCCOC(=O)C(C#N)c1nc2ccccc2nc1N1CCOCC1` (stereo not drawn), the “hERG current change (%, negative = inhibition) at 1uM” value worked out at 2.31%. The value for `COc1ccc(OCC(O)Cn2c(Br)nc3c2c(=O)[nH]c(=O)n3C)cc1` (stereo not drawn) was 4.22%. For `Cn1nnnc1SCC(=O)Nc1cc(C(=O)O)cc(C(=O)O)c1` the value was 3.9%; for `CCOC(=O)c1nn(-c2c(C)n(C)n(-c3ccccc3)c2=O)cc1O`, 17.6%; for `COc1ccc(NC(=O)CSc2nc3sc(C)cc3c(=O)n2C)c(OC)c1`, 4.2%. For `Cc1cc2cc(CCNS(C)(=O)=O)c(=O)[nH]c2cc1C` the value was 11.5%; for `COc1ccc(CCNC(=O)c2cc(S(=O)(=O)N(C)c3ccccc3)ccc2Cl)cc1`, 2.07%; for `Cc1cc2c(n1-c1ccc(C(=O)O)cc1)CCCCC2`, 6.11%. In the case of `O=C(Nc1nnc(C2CC2)o1)c1ccc(S(=O)(=O)N2CCCc3ccccc32)cc1`, the “hERG current change (%, negative = inhibition) at 1uM” value was 1.64%.

In the case of `CCOC(=O)c1c(NC(=O)C2CCCO2)sc(C(=O)OC(C)(C)C)c1C` (stereo not drawn), the “hERG current change (%, negative = inhibition) at 1uM” value is 11.6%. For `CCOc1cc2c(cc1OCC)CN(CC(=O)Nc1ccccc1C(=O)NC1CC1)CC2` the value was -8.52%; for `CCOC(=O)N1CCN(S(=O)(=O)c2ccc(NC(C)=O)cc2)CC1`, 17.8%; for `CC1(C)CC(=O)c2cnc3c(C#N)cnn3c2C1`, 8.53%.

For `Cn1c(CCNC(=O)c2ccco2)nc2cc(NS(=O)(=O)c3ccc(Cl)cc3)ccc21`, the “hERG current change (%, negative = inhibition) at 1uM” value is recorded as -15.2%.

Consider `Cc1cc(C)c(NC(=O)c2cccs2)c(C)c1NC(=O)c1cccs1`, for which the “hERG current change (%, negative = inhibition) at 1uM” value came out at 10.9%.

Regarding `C=CCNC(=O)NC(=O)COC(=O)/C(C#N)=C/c1cc(C)n(CCC(C)C)c1C`, the “hERG current change (%, negative = inhibition) at 1uM” value amounted to 6.4%. The value for `Cn1c(SCC(=O)O)nnc1C1CCCCC1` was 7.6%. The value for `COC(=O)CSc1nnc(Cc2cc(=O)[nH]c(=O)[nH]2)n1-c1cccc(OC)c1` was 8.36%; that for `O=Cc1ccc(OCC(=O)N2CCOCC2)cc1` was 14%. As for `COc1cc(/C(C)=N/NC(=O)c2nnn(-c3nonc3N)c2-c2cccs2)ccc1O`, the “hERG current change (%, negative = inhibition) at 1uM” value is recorded as -2.99%. For `CCOc1ccccc1OCCCC(=O)ON=C(N)c1ccccc1` the value was 12.3%. `Cc1ccc2c(c1)CCCN2C(=O)c1cc2ccccc2oc1=O`: the “hERG current change (%, negative = inhibition) at 1uM” value is -3.54%. For `O=C(CSc1nccn1-c1ccccc1)c1ccc(Br)cc1` the value was 5.49%. For `Cc1cc2oc3c(c(=O)c2cc1C)C(c1ccc(C(C)C)cc1)N(CCCN1CCOCC1)C3=O` (stereo not drawn) the value was 13%. The value for `[O-]/C(=C(\C(=S)Nc1cccc2ccccc12)[n+]1ccccc1)c1ccc(Cl)s1` was 9.78%; that for `Cc1ccc(C(=O)N/N=C/c2ccc(-c3cccc(C(F)(F)F)c3)o2)cn1` was 8.06%; that for `CC(OC(=O)CNC(=O)c1cccc(F)c1)C(=O)NC1CCCCC1C` (stereo not drawn) was 10.6%. For the compound `CN(C)c1ccc(CNC(=O)CCS(=O)(=O)c2ccc3c(c2)n(C)c(=O)c(=O)n3C)cc1`, the “hERG current change (%, negative = inhibition) at 1uM” value was 9.05%. For `COc1ccc(C2/C(=C(/O)c3ccc(C)cc3)C(=O)C(=O)N2c2ccccn2)cc1` (stereo not drawn) the value was 14.7%. For `Cc1c(NC(=O)COc2ncnc3c(Cl)cc(Cl)cc23)c(=O)n(-c2ccccc2)n1C` the value was 7.9%. Turning to `O=C(NCc1ccc2c(c1)OCO2)NC1CCCCC1`, the “hERG current change (%, negative = inhibition) at 1uM” value is on record as 12.7%.

With `COc1cccc(C(=O)Nc2nc(-c3ccncc3)cs2)c1`, the “hERG current change (%, negative = inhibition) at 1uM” value is -5.93%. The value for `CCc1ccc(N2CC(C(=O)N/N=C/c3ccccc3)CC2=O)cc1` (stereo not drawn) was 7.08%; that for `Cn1ccnc1SCC(=O)Nc1ccc2c(c1)OC(F)(F)O2` was 11.7%. Consider `CCc1ccccc1N/C(=N\S(=O)(=O)c1ccccc1)C(F)(F)F`, for which the “hERG current change (%, negative = inhibition) at 1uM” value amounted to 3.34%.

On to `COc1ccccc1N1CCN(S(=O)(=O)CCNC(=O)c2cccc(F)c2)CC1`, for which the “hERG current change (%, negative = inhibition) at 1uM” value was 4.86%. For `Cn1cccc1/C=C(/C#N)C(N)=S` the value was 2.12%. For `Cl.Oc1ccc2c3c1O[C@H]1c4[nH]c5ccccc5c4C[C@@]4(O)[C@@H](C2)N(CC2CC2)CC[C@]314`, the “hERG current change (%, negative = inhibition) at 1uM” value is listed as -29.7%. The value for `Cc1cc(NC(=O)CCCC(=O)NCc2ccccc2)no1` was 10.8%. `CC(C)CC(C(=O)NC1CCCC1)N(Cc1ccc2c(c1)OCO2)C(=O)c1snc(C(N)=O)c1N` (stereo not drawn): the “hERG current change (%, negative = inhibition) at 1uM” value was found to be 9.2%. For `Clc1ccccc1CN1CCN(c2cccc3[nH]ccc23)CC1` the value was 9.14%.

For `C=CCn1c(CC(=O)Nc2cccc(OC)c2)nnc1SCC(=O)NC1CCCCC1`, the “hERG current change (%, negative = inhibition) at 1uM” value is 8.17%. On to `CC1(C)Cc2nc(-c3ccccc3)n3cnnc3c2CO1`, for which the “hERG current change (%, negative = inhibition) at 1uM” value came to 4.47%.

For `Cl.Nc1nc(N2CCN(C/C=C/c3ccccc3)CC2)nc2ccccc12`, the “hERG current change (%, negative = inhibition) at 1uM” value is reported as -28.3%. For `CC(=O)c1ccc(N2CCN(C(=S)Nc3ccccc3C(F)(F)F)CC2)cc1` the value was 13.7%. For `COc1cc(OC)cc(C(=O)OCC(=O)N2CCCC2)c1` the value was 12.3%. The value for `Cc1ccc(-c2nc3ccccc3c(=O)n2-c2cccc(O)c2)cc1` was 15.9%; that for `Cc1cnc(NC(=O)CCNC(=O)c2ccccc2Cl)s1` was 13.6%. As for `COc1cc(CCC(=O)O)on1`, the “hERG current change (%, negative = inhibition) at 1uM” value is reported as 13.3%. As to `O=C(CN1CCOCC1)N(c1ccccc1)c1ccc2ccccc2c1`, the “hERG current change (%, negative = inhibition) at 1uM” value is listed as -1.4%. The value for `CC1(c2ccccc2)NC(=O)N(CC#N)C1=O` (stereo not drawn) was 4.85%; that for `CC(NC(=O)Cn1c(=O)[nH]c2ccsc2c1=O)C12CC3CC(CC(C3)C1)C2` (stereo not drawn) was 7.3%. For `COC(=O)c1ccc(-c2nc3ccccc3[nH]2)cc1` the value was 10.5%. In the case of `CCN1CCN(C(=O)CN(Cc2ccccc2)S(C)(=O)=O)CC1`, the “hERG current change (%, negative = inhibition) at 1uM” value was 2.89%. The value for `Nc1nnnn1CC(=O)N/N=C/c1cccs1` was 13.4%. For `O=C(c1ccc(F)cc1)N(Cc1ccccc1)C1CCS(=O)(=O)C1` (stereo not drawn) the value was 10.9%; for `Cn1c(N)c(C(=O)COC(=O)C2(c3ccccc3F)CCCC2)c(=O)n(C)c1=O`, 0.464%; for `O=C(COC(=O)CN1C(=O)c2cccc([N+](=O)[O-])c2C1=O)NC1CCS(=O)(=O)C1` (stereo not drawn), -1.98%. For `CCN(CC)C(=O)c1ccc(CS(=O)(=O)c2ccc(Br)cc2)cc1` the value was 12%; for `Cc1ccc(NC(=O)CCNS(=O)(=O)c2ccc(Br)cc2)cc1S(=O)(=O)N1CCOCC1`, 12.6%. Consider `COc1ccc(CNC(=O)C2(CC3CC(c4ccccc4)=NO3)CCN(C(=O)CCCCCBr)CC2)cc1` (stereo not drawn), for which the “hERG current change (%, negative = inhibition) at 1uM” value was -60.3%. As to `C=CCN(CC=C)C(=S)NC(=O)c1ccc(-c2ccccc2)cc1`, the “hERG current change (%, negative = inhibition) at 1uM” value was determined as 8.76%. Turning to `CCC(C)C(NC(=O)C(C)NC(=O)CNC(=O)CNC(=O)OCc1ccccc1)C(=O)OC` (stereo not drawn) (Cbz-GGAI-OMe; configuration not given here), the “hERG current change (%, negative = inhibition) at 1uM” value came out at 16.5%. The value for `CCN=C(NCC)SC1CC(=O)N(c2cccc(OC)c2)C1=O` (stereo not drawn) was 9.19%.

As for `Cc1cccc(-n2nc3c(c2NC(=O)C(C)C)CSC3)c1`, the “hERG current change (%, negative = inhibition) at 1uM” value is recorded as -0.316%.

Turning to `COc1cc(NC(=O)C2=C(N3CCOCC3)/C(=C\c3ccc(Br)cc3)CC2)cc(OC)c1OC`, the “hERG current change (%, negative = inhibition) at 1uM” value is -1.63%.
